This passage reports Cytolysis, EC50, IC50 and EC50 results from patent US20240228645A1.

The target in test [1] is human BAFF-R expressed on cells (hBAFF-R-CHO isogenic CHO cells; BAFF-R+ cancer cells) (human) (UniProt Q96RJ3). As to the kind of experiment: cell-based or functional assay.
Test [2] shares this target. As to the kind of experiment: ligand blocking assay; competitor BAFF-biotin on CHO cells expressing human BAFF-R.
Test [3] has the same target. As to the kind of experiment: cell binding assay, human BAFF-R cells.
Test [4] deals with cynomolgus monkey BAFF-R expressed on CHO cells (cBAFF-R-CHO) (cynomolgus monkey). As to the kind of experiment: cell binding assay, cynomolgus BAFF-R cells.

B1: AB1084 multispecific binding protein (protein, part only; not given: two other binders and format, part only)
VH: EVQLVQSGGGVVQPGRSLRLSCAASGFTFSMYGMHWVRQAPGKCLEWVAVIWYDASNKYYGDSVKGRFTISRDNSKNTLYLQMNSLRDEDTAVYYCARRFTRLRGWYIEDYGLDVWGQGTTVTVSS
VL: EIVLTQSPSSLSASVGDRVTIT[gap - about 80 residues]FGCGTKVEIK
Consider B1, for which, in test [1], the Cytolysis, EC50 was 0.06 nM.

B2: AB1424/AB1612 multispecific binding protein (protein, part only; not given: other binders, Fc, scFv orientation, not shown: another chain or arm of the molecule; a dimerising Fc or GST)
VH: EVQLVQSGGGVVQPGRSLRLSCAASGFTFSSYGMHWVRQAPGKCLEWVAVIWYDASNKYYGDSVKGRFTISRDNSKNTLYLQMNSLRDEDTAVYYCARRFTHLRGQYIEDYGLDVWGQGTTVTVSS
VL: EIVLTQSPSSLSASVGDRVTIT[gap - about 80 residues]FGCGTKVEIK
Regarding B2, in test [2], the 50% inhibitory concentration (IC50) (as a rule, the midpoint of a concentration-inhibition curve) was determined as 6.76 nM. Also, the EC50 – broadly, the midpoint of the concentration-response curve – in test [3] turned out to be 3.09 nM; in test [4] it was 1.85 nM.
